Data from the RNAGym collection of RNA variant scans (doi:10.1073/pnas.2313332121).
Variants at the floor of the assay are shown more often than the library holds them.

B1: TPR 5TU (parent)
chain: GGAUCUUCUCGAUCUAACAAAAAAGACAAAUCUGCCACAAAGCUUGAGAGCAUCUUCGGAUGCAGAGGCGGCAGCCUUCGGUGGCGCGAUAGCGCCAACGUUCUCAACUAUGACACGCAAAACGCGUGCUCCGUUGAAUGGAGUUUAUCAUG

Variants of: B1
Test: polymerase ribozyme fitness, log enrichment relative to wild type (log ratio); higher = more active; in vitro selection for triplet polymerase activity
Procedure, shortened: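 To select mutant libraries of each subunit of a heterodimeric triplet polymerase ribozyme, built by PCR and transcribed, each was annealed with a biotinylated primer, partner subunit and triplets, then incubated frozen at −7 °C. Extended constructs were gel-excised, captured on streptavidin beads and amplified by RT-PCR, in one round carried out in triplicate. Illumina sequencing of input and output libraries kept genotypes with ≥10 input reads and ≥1 read per output. Fitness is the base-2 logarithm of genotype enrichment relative to wild-type enrichment, from inverse-variance-weighted replicate averages.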

A23C G152U and A23C U33G A37C G70C A98U A120U G126A U144C cannot be ordered by “polymerase ribozyme fitness (log ratio)” value: ≤ -4.2 for the first, ≤ -4.2 for the second.

A23C U33G A49C G84U A106G C114G and A23C U33G A91G C103G G141A cannot be ordered by “polymerase ribozyme fitness (log ratio)” value: ≤ -4.2 for the first, ≤ -4.2 for the second.

A23C U44G A47U A91U A122U and A23C U45A G84A A142C A150U cannot be ordered by “polymerase ribozyme fitness (log ratio)” value: ≤ -4.2 for the first, ≤ -4.2 for the second.

Compared with A23C U45C A52C U55A C75G C76U C93A A119G G143U, A23C U45G G94U C103G U148G is lower in “polymerase ribozyme fitness (log ratio)” value: -4.17 for the first, ≤ -4.2 for the second.

First: A23C U144C
Second: A23G A24G A29C C76A C93G G94U G126U U146G
The “polymerase ribozyme fitness (log ratio)” value of the first is higher: -4.15 for the first, ≤ -4.2 for the second.

A23G A24G A30G G42A G81A C85A U90A A113U C118A and A23G A24G G42U U78C C95U C114A G124A C149A cannot be ordered by “polymerase ribozyme fitness (log ratio)” value: ≤ -4.2 for the first, ≤ -4.2 for the second.

A23G A26C G141A C149G and A23G A26G U55G U77G G92A C95U A98G C103G C116A C125A cannot be ordered by “polymerase ribozyme fitness (log ratio)” value: ≤ -4.2 for the first, ≤ -4.2 for the second.

A23G A26U A28U C38U A49C and A23G A26U G84U cannot be ordered by “polymerase ribozyme fitness (log ratio)” value: ≤ -4.2 for the first, ≤ -4.2 for the second.

A23G A26U G94C A110C and A23G A28C A115U U134A cannot be ordered by “polymerase ribozyme fitness (log ratio)” value: ≤ -4.2 for the first, ≤ -4.2 for the second.

A23G A28G G83U G88A and A23G A29G C69A U90C A142U cannot be ordered by “polymerase ribozyme fitness (log ratio)” value: ≤ -4.2 for the first, ≤ -4.2 for the second.

A23G A29G C93U C103G and A23G A30U G50U U53A C85U U101G C108A U144A cannot be ordered by “polymerase ribozyme fitness (log ratio)” value: ≤ -4.2 for the first, ≤ -4.2 for the second.

A23G A37G C93U U135G and A23G A37G U44G G74C U77A U146A A150G cannot be ordered by “polymerase ribozyme fitness (log ratio)” value: ≤ -4.2 for the first, ≤ -4.2 for the second.

A23G A37U U135G G136U and A23G A39C C87A C116U cannot be ordered by “polymerase ribozyme fitness (log ratio)” value: ≤ -4.2 for the first, ≤ -4.2 for the second.

A23G A39C G80U C96G U102G C103U C118G and A23G A39G A41G G42C U61G A73C C76A C93U C95U G100C G124U U127C G152U cannot be ordered by “polymerase ribozyme fitness (log ratio)” value: ≤ -4.2 for the first, ≤ -4.2 for the second.

A23G A39U U55G U56C C69A C87A A138G and A23G A40C G84A C99G U139G cannot be ordered by “polymerase ribozyme fitness (log ratio)” value: ≤ -4.2 for the first, ≤ -4.2 for the second.

Compared with A23G A40C G141C, A23G A40G U53G A89C C95A is lower in “polymerase ribozyme fitness (log ratio)” value: -3.82 for the first, ≤ -4.2 for the second.

A23G A40G U61A C131G G141A and A23G A41C C43A U45A A49G U55G C96A C108G cannot be ordered by “polymerase ribozyme fitness (log ratio)” value: ≤ -4.2 for the first, ≤ -4.2 for the second.

A23G A41G C75A C95U and A23G A41U U44A G86C C87U C93U U134A cannot be ordered by “polymerase ribozyme fitness (log ratio)” value: ≤ -4.2 for the first, ≤ -4.2 for the second.

First: A23G A47C
Second: A23G A47C A113G U135G
The “polymerase ribozyme fitness (log ratio)” value of the first is higher: -2.96 for the first, ≤ -4.2 for the second.

A23G A47G G88C U90G and A23G A49C C79G G84A C87U A98U A137C U146C cannot be ordered by “polymerase ribozyme fitness (log ratio)” value: ≤ -4.2 for the first, ≤ -4.2 for the second.

A23G A49U C72U C76G G84C C95U G140A and A23G A49U C87A C108U C132U cannot be ordered by “polymerase ribozyme fitness (log ratio)” value: ≤ -4.2 for the first, ≤ -4.2 for the second.

A23G A52U G59U G94C U144C and A23G A64U G136U A150G cannot be ordered by “polymerase ribozyme fitness (log ratio)” value: ≤ -4.2 for the first, ≤ -4.2 for the second.

A23G A66C C85G and A23G C27A A37C G81A C87G U101C U134C cannot be ordered by “polymerase ribozyme fitness (log ratio)” value: ≤ -4.2 for the first, ≤ -4.2 for the second.

Going from A23G C35G C51A C85U A106U A113C A121C to A23G C35U U56A C85A C118U G124U, the “polymerase ribozyme fitness (log ratio)” value rises from ≤ -4.2 to -4.08.

A23G C36G and A23G C51G U53A A60G G84A U104G C116U A121C cannot be ordered by “polymerase ribozyme fitness (log ratio)” value: ≤ -4.2 for the first, ≤ -4.2 for the second.

A23G C51U C69U A97U U101G A107U and A23G C51U U55G G83U G92U cannot be ordered by “polymerase ribozyme fitness (log ratio)” value: ≤ -4.2 for the first, ≤ -4.2 for the second.

A23G C54G U56A A142C and A23G C57A G88A G124C cannot be ordered by “polymerase ribozyme fitness (log ratio)” value: ≤ -4.2 for the first, ≤ -4.2 for the second.

A23G C57U G70U C87G and A23G C69U G88C A107G U139C cannot be ordered by “polymerase ribozyme fitness (log ratio)” value: ≤ -4.2 for the first, ≤ -4.2 for the second.

First: A23G C75U G86C A110U G133C U135C
Second: A23G C85U
The “polymerase ribozyme fitness (log ratio)” value of the first is lower: ≤ -4.2 for the first, -2.38 for the second.

A23G C87A U104A U127A G136A and A23G G34C U55G G67U C95U A115U G133A cannot be ordered by “polymerase ribozyme fitness (log ratio)” value: ≤ -4.2 for the first, ≤ -4.2 for the second.

A23G G42C G50C U61A C75G C85G A122C G128U and A23G G48U C87G C93U C118U G124C U135G cannot be ordered by “polymerase ribozyme fitness (log ratio)” value: ≤ -4.2 for the first, ≤ -4.2 for the second.

A23G G50A C57U U90A A120G U148G and A23G G68U C93G A142G cannot be ordered by “polymerase ribozyme fitness (log ratio)” value: ≤ -4.2 for the first, ≤ -4.2 for the second.

A23G G83A C114U C149G and A23G G83A G94A C125U A147C cannot be ordered by “polymerase ribozyme fitness (log ratio)” value: ≤ -4.2 for the first, ≤ -4.2 for the second.

A23G G83U C87A C96U A122C and A23G G100A cannot be ordered by “polymerase ribozyme fitness (log ratio)” value: ≤ -4.2 for the first, ≤ -4.2 for the second.

A23G U31A C85U U151C and A23G U33A C57U G62A A73U G81A G88C A120C G143A cannot be ordered by “polymerase ribozyme fitness (log ratio)” value: ≤ -4.2 for the first, ≤ -4.2 for the second.

A23G U33C A37G G58C U61A G68C C95U U130C and A23G U33C C54A C96U U101A A107G cannot be ordered by “polymerase ribozyme fitness (log ratio)” value: ≤ -4.2 for the first, ≤ -4.2 for the second.

A23G U33C G58U C76U C96A A119U and A23G U33C U53A C96U cannot be ordered by “polymerase ribozyme fitness (log ratio)” value: ≤ -4.2 for the first, ≤ -4.2 for the second.

A23G U33G G42C C87G A120G G126U and A23G U33G U56C G71U G117U A119C U144G U146C cannot be ordered by “polymerase ribozyme fitness (log ratio)” value: ≤ -4.2 for the first, ≤ -4.2 for the second.

First: A23G U44A G88A
Second: A23G U44G U53G A91C C95U C103A G117A A121C G126A
The “polymerase ribozyme fitness (log ratio)” value of the first is higher: -4.1 for the first, ≤ -4.2 for the second.

A23G U45A C63U G83A G92U G94A A142C and A23G U45A G81U C85G C87U U90G C96U C118U cannot be ordered by “polymerase ribozyme fitness (log ratio)” value: ≤ -4.2 for the first, ≤ -4.2 for the second.

A23G U55A G62C G68U C96U A121U and A23G U56A G92C cannot be ordered by “polymerase ribozyme fitness (log ratio)” value: ≤ -4.2 for the first, ≤ -4.2 for the second.

With A23G U61A G92C A121G A142G the “polymerase ribozyme fitness (log ratio)” value was ≤ -4.2.
